{
  "source": "patent US4211769A",
  "about": "“Preparations for vaginal administration” (Takeda Chemical Industries, Ltd., priority 1977, dated 1980)",
  "key": {"matured female SD rats": {"tested_on": "matured female SD rats", "type": "in vivo, rat", "procedure": "A synthetic peptide (monoacetate.pentahydrate; (Pyr)Glu-His-Trp-Ser-Tyr-D-Leu-Leu-Arg-Pro-NH-C2 H5) was dissolved in aliquots of Clark-Lubs buffer [J. Bact. 2, (1), 109, 191(1971) [or Sorensen's buffer [Ergeb.Physiol. 12, 3931 (1912)] at pH 2-7 and each solution was supported on a piece (substantially-predetermined volume) of cotton and administered into the vaginas of rats to investigate the pH dependence of the ovulation-stimulating activity of the peptide.\nUsing matured female SD rats (120-150 days, body weights from 250 to 350 g), each preparation was vaginally administered during the diestrus and the animal was autopsied next morning to check for the occurrence of ovulation based on the presence or absence of ova in the ampulla.\nThe same peptide as that used in Example 12 was dissolved in 0.238 mol/liter aqueous solutions of various water-soluble aliphatic carboxylic acids which had been previously adjusted to pH 3.5 with small amounts of 10 N--NaOH. By the same procedure as that described in Example 12, rats were vaginally dosed with 0.2 ml/kg each of the solutions (pH 3.5) at a dose level of 40 ng/100 g to study the influence of those acids upon ovulation-stimulating activity.\nThe same peptide as used in Example 12 was employed as the active component. Citric acid was added to aliquots of phthalate buffer (pH 3.5) at the levels of addition of 1, 2, 5, 7 and 10% (W/V) and the pH of each solution was readjusted to pH 3.5 with a small amount of concentrated NaOH. This solution was vaginally administered into rats in the same manner as Example 12 to investigate the influence of different levels of addition of citric acid upon ovulation-stimulating activity.\nUsing the same peptide as that used in Example 12 and various water-solublegels, vaginal preparations were prepared by the procedures described in Examples 12, 13 and 14 as well as by procedures analogous thereto and each preparation was administered into the vaginas of rats by means of a glass applicator at the dose levels of 60 to 100 mg. The ovulation-stimulating effects were investigated by the same procedure as that described in Example 12."}, "serum LH": {"tested_on": "serum LH", "test": "serum LH level by radioimmunoassay after single administration", "type": "in vivo, rat", "details": "for serum LH concentration (mean ± S.E.): diestrous rats"}, "rat": {"tested_on": "rat", "type": "in vivo", "source_text": "In terms of ovulation-stimulating action, a 30 times increase of stimulating effect was obtained over the control (without carboxylic acid) in the case of natural type LH-RH (Table 1). […] It is clear that a given pharmacological effect can be obtained at a dose equivalent to 5.2 times the intravenous dose or 3.1 times the subcutaneous dose. […] In view of these facts, it is obvious that the vaginal administration according to this invention is a very advantageous method of medication.\nThus, to achieve a given ovulation-stimulatingactivity, the vaginal preparation according to this invention requires only 2.6 times as much of peptide as by the intravenous route and 1.7 times as much of peptide as by the subcutaneous route. The unusual effectiveness of the vaginal preparation of this invention will also be apparent in view of the fact that oral administration requires 1900 times as much of peptide as by the intravenous route, rectal administration requires 82 times the dosage by the intravenous route, and vaginal administration with the oleaginous basis (Witepsol® S55) requires 26 times as much of peptide as by the intravenous route."}, "[1]": {"details": "vaginal, aqueous solution with 10% citric acid at pH 2.0"}},
  "note": "Read-outs that look alike come from different tables or passages of the source. At least one peptide structure holds a part that was inferred or is arguable (an end, a ring closure or a residue).",
  "data": [
    {"smiles": "CCNC(=O)[C@@H]1CCCN1C(=O)[C@H](CCCNC(=N)N)NC(=O)[C@H](CC(C)C)NC(=O)[C@@H](CC(C)C)NC(=O)[C@H](Cc1ccc(O)cc1)NC(=O)[C@H](CO)NC(=O)[C@H](Cc1c[nH]c2ccccc12)NC(=O)[C@H](Cc1c[nH]cn1)NC(=O)[C@@H]1CCC(=O)N1", "note": "[peptide of Example 12, (Pyr)Glu-His-Trp-Ser-Tyr-D-Leu-Leu-Arg-Pro-NH-C2 H5]", "values": [
      {"measurement": "ED50 (95% fiducial limits)", "setting": "matured female SD rats; vaginal gel, base Glycero-gelatin 33%", "value": "179(145-349) ng/rat"},
      {"measurement": "ED50 (95% fiducial limits)", "setting": "matured female SD rats; vaginal gel, base Gum Xanthane 3%", "value": "45(38-54) ng/rat"},
      {"measurement": "ED50 (95% fiducial limits)", "setting": "matured female SD rats; vaginal gel, base methyl-cellulose 5%", "value": "75(67-86) ng/rat"},
      {"measurement": "ED50 (95% fiducial limits)", "setting": "matured female SD rats; vaginal, Clark-Lubs buffer on cotton, pH 4.76", "value": "52(44-58) ng/100g of rat"},
      {"measurement": "ED50 (95% fiducial limits)", "setting": "matured female SD rats; vaginal, Clark-Lubs buffer on cotton, pH 6.70", "value": "144(115-201) ng/100g of rat"},
      {"measurement": "ED50 (95% fiducial limits)", "setting": "matured female SD rats; vaginal, Sorensen's buffer on cotton, pH 2.02", "value": "32(23-40) ng/100g of rat"},
      {"measurement": "ED50 (95% fiducial limits)", "setting": "matured female SD rats; vaginal, Sorensen's buffer on cotton, pH 3.47", "value": "67(60-79) ng/100g of rat"},
      {"measurement": "ED50 (95% fiducial limits)", "setting": "matured female SD rats; vaginal, phthalate buffer pH 3.5, citric acid 0%", "value": "67(60-79) ng/100g body weight of rat"},
      {"measurement": "ED50 (95% fiducial limits)", "setting": "matured female SD rats; vaginal, phthalate buffer pH 3.5, citric acid 1%", "value": "44(37-54) ng/100g body weight of rat"},
      {"measurement": "ED50 (95% fiducial limits)", "setting": "matured female SD rats; vaginal, phthalate buffer pH 3.5, citric acid 2%", "value": "53(40-177) ng/100g body weight of rat"},
      {"measurement": "ED50 (95% fiducial limits)", "setting": "matured female SD rats; vaginal, phthalate buffer pH 3.5, citric acid 5%", "value": "23(16-31) ng/100g body weight of rat"},
      {"measurement": "ED50 (95% fiducial limits)", "setting": "matured female SD rats; vaginal, phthalate buffer pH 3.5, citric acid 7%", "value": "20(15-25) ng/100g body weight of rat"},
      {"measurement": "ED50 (95% fiducial limits)", "setting": "matured female SD rats; vaginal, phthalate buffer pH 3.5, citric acid 10%", "value": "15(10-19) ng/100g body weight of rat"},
      {"measurement": "serum LH concentration (mean ± S.E.)", "setting": "serum LH; Intra-vagina, buffer in cotton ball + 5% citric acid, pH 2, 9.9 ng/100 g b.w., 0 min", "value": "27.2 ± 2.7", "unit": "ng/mL"},
      {"measurement": "serum LH concentration (mean ± S.E.)", "setting": "serum LH; Intra-vagina, buffer in cotton ball + 5% citric acid, pH 2, 9.9 ng/100 g b.w., 10 min", "value": "30.4 ± 5.5", "unit": "ng/mL"},
      {"measurement": "serum LH concentration (mean ± S.E.)", "setting": "serum LH; Intra-vagina, buffer in cotton ball + 5% citric acid, pH 2, 9.9 ng/100 g b.w., 20 min", "value": "35.2 ± 7.1", "unit": "ng/mL"},
      {"measurement": "serum LH concentration (mean ± S.E.)", "setting": "serum LH; Intra-vagina, buffer in cotton ball + 5% citric acid, pH 2, 9.9 ng/100 g b.w., 40 min", "value": "28.0 ± 2.5", "unit": "ng/mL"},
      {"measurement": "serum LH concentration (mean ± S.E.)", "setting": "serum LH; Intra-vagina, buffer in cotton ball + 5% citric acid, pH 2, 9.9 ng/100 g b.w., 60 min", "value": "76.4 ± 21.3", "unit": "ng/mL"},
      {"measurement": "serum LH concentration (mean ± S.E.)", "setting": "serum LH; Intra-vagina, buffer in cotton ball + 5% citric acid, pH 2, 9.9 ng/100 g b.w., 120 min", "value": "648.0 ± 207.5", "unit": "ng/mL"},
      {"measurement": "serum LH concentration (mean ± S.E.)", "setting": "serum LH; Intra-vagina, buffer in cotton ball + 5% citric acid, pH 2, 9.9 ng/100 g b.w., 180 min", "value": "628.0 ± 137.2", "unit": "ng/mL"},
      {"measurement": "serum LH concentration (mean ± S.E.)", "setting": "serum LH; Intra-vagina, buffer in cotton ball + 5% citric acid, pH 2, 9.9 ng/100 g b.w., 240 min", "value": "357.0 ± 89.0", "unit": "ng/mL"},
      {"measurement": "serum LH concentration (mean ± S.E.)", "setting": "serum LH; Intra-vagina, buffer in cotton ball + 5% citric acid, pH 2, 9.9 ng/100 g b.w., 300 min", "value": "93.0 ± 11.9", "unit": "ng/mL"},
      {"measurement": "serum LH concentration (mean ± S.E.)", "setting": "serum LH; Intra-vagina, buffer in cotton ball + 5% citric acid, pH 2, 9.9 ng/100 g b.w., 360 min", "value": "71.1 ± 8.5", "unit": "ng/mL"},
      {"measurement": "serum LH concentration (mean ± S.E.)", "setting": "serum LH; i.v. 3.8 ng/100 g b.w., 0 min", "value": 27.2, "unit": "ng/mL"},
      {"measurement": "serum LH concentration (mean ± S.E.)", "setting": "serum LH; i.v. 3.8 ng/100 g b.w., 10 min", "value": 116.5, "unit": "ng/mL"},
      {"measurement": "serum LH concentration (mean ± S.E.)", "setting": "serum LH; i.v. 3.8 ng/100 g b.w., 20 min", "value": "90.5 ± 16.6", "unit": "ng/mL"},
      {"measurement": "serum LH concentration (mean ± S.E.)", "setting": "serum LH; i.v. 3.8 ng/100 g b.w., 40 min", "value": "120.5 ± 16.0", "unit": "ng/mL"},
      {"measurement": "serum LH concentration (mean ± S.E.)", "setting": "serum LH; i.v. 3.8 ng/100 g b.w., 60 min", "value": "323.5 ± 51.4", "unit": "ng/mL"},
      {"measurement": "serum LH concentration (mean ± S.E.)", "setting": "serum LH; i.v. 3.8 ng/100 g b.w., 120 min", "value": "208.5 ± 24.9", "unit": "ng/mL"},
      {"measurement": "serum LH concentration (mean ± S.E.)", "setting": "serum LH; i.v. 3.8 ng/100 g b.w., 180 min", "value": 46.6, "unit": "ng/mL"},
      {"measurement": "serum LH concentration (mean ± S.E.)", "setting": "serum LH; i.v. 3.8 ng/100 g b.w., 240 min", "value": 35.9, "unit": "ng/mL"},
      {"measurement": "serum LH concentration (mean ± S.E.)", "setting": "serum LH; i.v. 3.8 ng/100 g b.w., 300 min", "value": "41.8 ± 18.4", "unit": "ng/mL"},
      {"measurement": "serum LH concentration (mean ± S.E.)", "setting": "serum LH; i.v. 3.8 ng/100 g b.w., 360 min", "value": "43.0 ± 13.6", "unit": "ng/mL"},
      {"measurement": "serum LH concentration (mean ± S.E.)", "setting": "serum LH; s.c. 5.8 ng/100 g b.w., 0 min", "value": 27.2, "unit": "ng/mL"},
      {"measurement": "serum LH concentration (mean ± S.E.)", "setting": "serum LH; s.c. 5.8 ng/100 g b.w., 10 min", "value": 40.9, "unit": "ng/mL"},
      {"measurement": "serum LH concentration (mean ± S.E.)", "setting": "serum LH; s.c. 5.8 ng/100 g b.w., 20 min", "value": "78.5 ± 15.1", "unit": "ng/mL"},
      {"measurement": "serum LH concentration (mean ± S.E.)", "setting": "serum LH; s.c. 5.8 ng/100 g b.w., 40 min", "value": "138.0 ± 19.3", "unit": "ng/mL"},
      {"measurement": "serum LH concentration (mean ± S.E.)", "setting": "serum LH; s.c. 5.8 ng/100 g b.w., 60 min", "value": "297.0 ± 89.5", "unit": "ng/mL"},
      {"measurement": "serum LH concentration (mean ± S.E.)", "setting": "serum LH; s.c. 5.8 ng/100 g b.w., 120 min", "value": "561.0 ± 68.5", "unit": "ng/mL"},
      {"measurement": "serum LH concentration (mean ± S.E.)", "setting": "serum LH; s.c. 5.8 ng/100 g b.w., 180 min", "value": "170.0 ± 50.6", "unit": "ng/mL"},
      {"measurement": "serum LH concentration (mean ± S.E.)", "setting": "serum LH; s.c. 5.8 ng/100 g b.w., 240 min", "value": "4.1 ± 10.0", "unit": "ng/mL"},
      {"measurement": "serum LH concentration (mean ± S.E.)", "setting": "serum LH; s.c. 5.8 ng/100 g b.w., 300 min", "value": 25.8, "unit": "ng/mL"},
      {"measurement": "serum LH concentration (mean ± S.E.)", "setting": "serum LH; s.c. 5.8 ng/100 g b.w., 360 min", "value": "56.1 ± 19.3", "unit": "ng/mL"},
      {"measurement": "serum LH level compared with subcutaneous or intravenous route", "setting": "serum LH; vaginal preparation, doses equal to ED50 for each route", "value": "has a higher peak and is significantly more sustained"},
      {"measurement": "amount of peptide required relative to the intravenous route", "setting": "rat; oral administration", "value": 1900, "unit": "times"},
      {"measurement": "amount of peptide required relative to the intravenous route", "setting": "rat; rectal administration", "value": 82, "unit": "times"},
      {"measurement": "amount of peptide required relative to the intravenous route", "setting": "rat; vaginal administration with the oleaginous basis (Witepsol S55)", "value": 26, "unit": "times"},
      {"measurement": "amount of peptide required relative to the intravenous route", "setting": "rat; [1]", "value": 2.6, "unit": "times"},
      {"measurement": "amount of peptide required relative to the subcutaneous route", "setting": "rat; [1]", "value": 1.7, "unit": "times"}
    ]}
  ]
}
